Data reported in US8058243B2, “Method for treating a brain cancer with ifenprodil” (HSC Research and Development Limited Partnership, priority 2006, dated 2011).

Test system: normal astrocytic GFAP expressing cell line C8-D1A
Experiment: Astrocyte screen and neurosphere selectivity assessment (MTT dose-response)
Type: cell-based, mouse
Experimental: Astrocyte Screen and Neurosphere Selectivity Assessment. […] Murine Medulloblastoma Generation and Culture. […] Flow Cytometry. […] Results
To verify hits from the primary screen, a representative sample of candidate agents from each pharmacological class were retested at the original screen concentration of 3 μM. […] Because other neural cell types such as astrocytes are known to express and signal through neurotransmitter receptors (17), a counter-screen was performed in a proliferating normal mouse astrocyte cell line to assess the selectivity and potency of each agent for neurosphere cultures. It was reasoned that this counter-screen would allow not only the identification of small molecules that were specific for signaling pathways present in neural precursors, but it would also help rule out non-specific cytotoxic agents.

[1] = EC50 astrocytes/EC50 precursor cells, Table 5
[2] = C8-D1A astrocytes, MTT, read-out: Astrocyte EC50
[3] = EC50 astrocytes/EC50 neurospheres
[4] = EC50 (astrocytes)/EC50 (neurospheres), Table 8
[5] = Mus musculus, C8-D1A, read-out: EC 50% Astrocyte, Table 5

Row | Molecule | Neurosphere Specificity [1] | Neurosphere Selectivity [3] | Neurosphere Selectivity [4] | also measured
1 | COc1ccccc1CNCCCCCCNCCCCCCCCNCCCCCCNCc1ccccc1OC [Methoctramine (31), Methoctramine] | 0.802 |  |  | 
2 | (R)-(−)-Propylnorapomorphine [(R)-(−)-Propylnorapomorphine (5)] |  | 23.4 |  | Neurosphere Selectivity: 23.4; Neurosphere Specificity: 23.4; pEC50 [2]: 5.08; pEC50 (read-out: Astrocyte EC50): 5.08; pEC50 (read-out: EC 50% Astrocyte): 5.08
3 | COc1cc([C@@H]2c3cc4c(cc3[C@@H](O[C@@H]3O[C@@H]5CO[C@@H](C)O[C@H]5[C@H](O)[C@H]3O)[C@H]3COC(=O)[C@H]23)OCO4)cc(OC)c1O [Etoposide (2), Etoposide] | 1.28 | 1.28 | 1.28 | 
4 | N.N.O=C([O-])C1(C(=O)[O-])CCC1.[Pt+2] [Carboplatin (3), Carboplatin] | 5.08 | 5.08 | 5.08 | pEC50 [2]: 5.61; pEC50 (Table 8, read-out: Astrocyte EC50): 5.61; pEC50 (read-out: EC 50% Astrocyte, Table 5): 5.61
5 | OCCN1CCN(CCCN2c3ccccc3Sc3ccc(Cl)cc32)CC1 [Perphenazine (26), Perphenazine] | >4 |  |  | 
6 | CN1CCN(c2nc3cc(C(F)(F)F)ccc3n3cccc23)CC1.O=C(O)/C=C\C(=O)O [CGS-12066A (40)] | 7.17 |  | 7.17 | 
7 | CC1=C(/C=C/C(C)=C/C=C/C(C)=C/C(=O)Nc2ccc(O)cc2)C(C)(C)CCC1 [Fenretinide (11), Retinoic acid p-hydroxyanilide] | 7.18 | 7.18 | 7.18 | 
8 | COc1cc(CNC(=O)CCCCCCC(C)C)ccc1O [Dihydrocapsaicin (15), Dihydrocapsaicin] | 192 |  |  | 
9 | Cc1cc(N)c2ccccc2[n+]1CCCCCCCCCC[n+]1c(C)cc(N)c2ccccc21 [Dequalinium (29), Dequalinium] | 0.962 |  |  | 
10 | CC(C)COCC(CN(Cc1ccccc1)c1ccccc1)N1CCCC1 (centres unmarked) [Bepridil (28), Bepridil] | 1.75 |  | 1.75 | 
11 | S=C=Nc1cccc(C2(N3CCCCC3)CCCCC2)c1 [Metaphit (35), Metaphit] | 0.361 |  | 0.361 | pEC50 [5]: 5.44; pEC50 (Mus musculus, C8-D1A, Table 8, read-out: Astrocyte EC50): 5.44
12 | Oc1ccc(-c2nc(-c3ccc(F)cc3)c(-c3ccncc3)[nH]2)cc1 [SB 202190 (13)] | 8.04 | 8.04 | 8.04 | 
13 | Cl.Cl.OCCN1CCN(CC/C=C2/c3ccccc3Sc3ccc(C(F)(F)F)cc32)CC1 [cis-(Z)-Flupenthixol (7), cis-(Z)-Flupenthixol] | 5.93 | 5.93 | 5.93 | 
14 | C[C@@H]1C[C@@H]([C@H](O)CC2CC(=O)NC(=O)C2)C(=O)[C@@H](C)C1 [Cycloheximide (1), Cycloheximide] |  |  |  | pEC50 (Mus musculus, C8-D1A, read-out: Astrocyte EC50): 7.15; pEC50 (Mus musculus, C8-D1A, read-out: EC 50% Astrocyte): 7.15
15 | O[Si](CCCN1CCCCC1)(c1ccc(F)cc1)C1CCCCC1 (centres unmarked) [p-F-HHSiD (8), p-fluoro-hexahydrosila-difenidol] | 13.2 | 13.2 | 13.2 | 
16 | CCN(CC)CCOCCOC(=O)C1(c2ccccc2)CCCC1 [Carbetapentane (10), Carbetapentane] | 37.3 |  |  | 
17 | COc1cc2ncnc(Nc3ccc(O)cc3)c2cc1OC [WHI-P131 (12), 4-(4′-hydroxylphenyl)-amino-6,7-dimethoxyquinazoline] | >10 | >10 | >10 | 
18 | CC(C(O)c1ccc(O)cc1)N1CCC(Cc2ccccc2)CC1 (centres unmarked) [Ifenprodil (9), Ifenprodil] | 17.9 | 17.9 | 17.9 | pEC50 [5]: 4.96; pEC50 (Mus musculus, C8-D1A astrocytes, MTT, read-out: Astrocyte EC50): 4.96

pEC50: −log10 of the molar value. Like-named read-outs stand apart in the source and are kept apart here.
